Reference: the supplement of paper PMC8728848
This is one part of the list.

What was measured:
Test in all cases: glycan array binding signal (z-score within array); higher = stronger binding
Settings in all cases: glycan notation: IUPAC condensed, linker removed
[1] = target: Neu5Ac(a2-3)Gal(b1-4)GlcNAc(b1-3)Gal
How it was run: (§1)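 Arrays were curated from the Consortium for Functional Glycomics database, 3228 in total, and kept only where the protein sequence was available. Binding is expressed as a within-array Z-score. This score was averaged across arrays of the same protein sequence at different concentrations or buffers and across linkers, and negative values can be read as non-binding.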

[2] = target: Neu5Ac(a2-3)Gal(b1-4)GlcNAc(b1-3)Gal(b1-3)GlcNAc
How it was run: as §1

[3] = target: Neu5Ac(a2-3)Gal(b1-4)GlcNAc(b1-3)Gal(b1-4)GlcNAc
How it was run: as §1

[4] = target: Neu5Ac(a2-3)Gal(b1-4)GlcNAc(b1-3)Gal(b1-4)GlcNAc(b1-2)Man(a1-3)[Neu5Ac(a2-3)Gal(b1-4)GlcNAc(b1-3)Gal(b1-4)GlcNAc(b1-2)Man(a1-6)]Man(b1-4)GlcNAc(b1-4)GlcNAc
How it was run: as §1

[5] = target: Neu5Ac(a2-3)Gal(b1-4)GlcNAc(b1-3)Gal(b1-4)GlcNAc(b1-3)Gal(b1-4)GlcNAc
How it was run: as §1

[6] = target: Neu5Ac(a2-3)Gal(b1-4)GlcNAc(b1-3)Gal(b1-4)GlcNAc(b1-3)Gal(b1-4)GlcNAc(b1-2)Man(a1-3)[Neu5Ac(a2-3)Gal(b1-4)GlcNAc(b1-3)Gal(b1-4)GlcNAc(b1-3)Gal(b1-4)GlcNAc(b1-2)Man(a1-6)]GalNAc
How it was run: as §1

[7] = target: Neu5Ac(a2-3)Gal(b1-4)GlcNAc(b1-3)Gal(b1-4)GlcNAc(b1-3)GalNAc
How it was run: as §1

[8] = target: Neu5Ac(a2-3)Gal(b1-4)GlcNAc(b1-3)Gal(b1-4)GlcNAc(b1-3)[Neu5Ac(a2-3)Gal(b1-4)GlcNAc(b1-3)Gal(b1-4)GlcNAc(b1-6)]GalNAc
How it was run: as §1

[9] = target: Neu5Ac(a2-3)Gal(b1-4)GlcNAc(b1-3)Gal(b1-4)GlcNAc(b1-6)[Gal(b1-3)]GalNAc
How it was run: as §1

[10] = target: Neu5Ac(a2-3)Gal(b1-4)GlcNAc(b1-3)Gal(b1-4)[Fuc(a1-3)]GlcNAc
How it was run: as §1

[11] = target: Neu5Ac(a2-3)Gal(b1-4)GlcNAc(b1-3)GalNAc
How it was run: as §1

[12] = target: Neu5Ac(a2-3)Gal(b1-4)GlcNAc(b1-3)[Neu5Ac(a2-3)Gal(b1-4)GlcNAc(b1-6)]GalNAc
How it was run: as §1

[13] = target: Neu5Ac(a2-3)Gal(b1-4)GlcNAc(b1-6)GalNAc
How it was run: as §1

[14] = target: Neu5Ac(a2-3)Gal(b1-4)GlcNAc(b1-6)[Gal(b1-3)]GalNAc
How it was run: as §1

[15] = target: Neu5Ac(a2-3)Gal(b1-4)GlcNAc(b1-6)[Neu5Ac(a2-3)Gal(b1-3)]GalNAc
How it was run: as §1

[16] = target: Neu5Ac(a2-3)Gal(b1-4)GlcNAc6S
How it was run: as §1

[17] = target: Neu5Ac(a2-3)Gal(b1-4)[Fuc(a1-3)]GlcNAc
How it was run: as §1

[18] = target: Neu5Ac(a2-3)Gal(b1-4)[Fuc(a1-3)]GlcNAc(b1-2)Man
How it was run: as §1

[19] = target: Neu5Ac(a2-3)Gal(b1-4)[Fuc(a1-3)]GlcNAc(b1-3)Gal
How it was run: as §1

[20] = target: Neu5Ac(a2-3)Gal(b1-4)[Fuc(a1-3)]GlcNAc(b1-3)Gal(b1-4)GlcNAc
How it was run: as §1

[21] = target: Neu5Ac(a2-3)Gal(b1-4)[Fuc(a1-3)]GlcNAc(b1-3)Gal(b1-4)[Fuc(a1-3)]GlcNAc(b1-3)Gal(b1-4)[Fuc(a1-3)]GlcNAc
How it was run: as §1

[22] = target: Neu5Ac(a2-3)Gal(b1-4)[Fuc(a1-3)]GlcNAc(b1-3)GalNAc
How it was run: as §1

[23] = target: Neu5Ac(a2-3)Gal(b1-4)[Fuc(a1-3)]GlcNAc(b1-6)[Gal(b1-3)]GalNAc
How it was run: as §1

[24] = target: Neu5Ac(a2-3)Gal(b1-4)[Fuc(a1-3)]GlcNAc(b1-6)[Neu5Ac(a2-3)Gal(b1-3)]GalNAc
How it was run: as §1

[25] = target: Neu5Ac(a2-3)Gal(b1-4)[Fuc(a1-3)]GlcNAc6S
How it was run: as §1

[26] = target: Neu5Ac(a2-3)Gal6S(b1-4)GlcNAc
How it was run: as §1

[27] = target: Neu5Ac(a2-3)Gal6S(b1-4)[Fuc(a1-3)]GlcNAc
How it was run: as §1

Neu5Ac(a2-3)GalNAc = target: Neu5Ac(a2-3)GalNAc
How it was run: as §1

[28] = target: Neu5Ac(a2-3)GalNAc(b1-4)GlcNAc
How it was run: as §1

[29] = target: Neu5Ac(a2-3)[GalNAc(b1-4)]Gal(b1-4)Glc
How it was run: as §1

[30] = target: Neu5Ac(a2-3)[GalNAc(b1-4)]Gal(b1-4)GlcNAc
How it was run: as §1

[31] = target: Neu5Ac(a2-3)[GalNAc(b1-4)]Gal(b1-4)GlcNAc(b1-3)GalNAc
How it was run: as §1

[32] = target: Neu5Ac(a2-3)[Neu5Ac(a2-6)]GalNAc
How it was run: as §1

Neu5Ac(a2-6)Gal = target: Neu5Ac(a2-6)Gal
How it was run: as §1

[33] = target: Neu5Ac(a2-6)Gal(b1-3)GlcNAc(b1-3)[Gal(b1-4)GlcNAc(b1-6)]Gal(b1-4)Glc
How it was run: as §1

Neu5Ac(a2-6)Gal(b1-4)Glc = target: Neu5Ac(a2-6)Gal(b1-4)Glc
How it was run: as §1

[34] = target: Neu5Ac(a2-6)Gal(b1-4)GlcNAc
How it was run: as §1

[35] = target: Neu5Ac(a2-6)Gal(b1-4)GlcNAc(b1-2)Man
How it was run: as §1

[36] = target: Neu5Ac(a2-6)Gal(b1-4)GlcNAc(b1-2)Man(a1-3)Man(b1-4)GlcNAc(b1-4)GlcNAc
How it was run: as §1

[37] = target: Neu5Ac(a2-6)Gal(b1-4)GlcNAc(b1-2)Man(a1-3)[Gal(b1-4)GlcNAc(b1-2)Man(a1-6)]Man(b1-4)GlcNAc(b1-4)GlcNAc
How it was run: as §1

[38] = target: Neu5Ac(a2-6)Gal(b1-4)GlcNAc(b1-2)Man(a1-3)[GlcNAc(b1-2)Man(a1-6)]Man(b1-4)GlcNAc(b1-4)GlcNAc
How it was run: as §1

[39] = target: Neu5Ac(a2-6)Gal(b1-4)GlcNAc(b1-2)Man(a1-3)[GlcNAc(b1-4)][Neu5Ac(a2-6)Gal(b1-4)GlcNAc(b1-2)Man(a1-6)]Man(b1-4)GlcNAc(b1-4)GlcNAc
How it was run: as §1

[40] = target: Neu5Ac(a2-6)Gal(b1-4)GlcNAc(b1-2)Man(a1-3)[Man(a1-6)]Man(b1-4)GlcNAc(b1-4)GlcNAc
How it was run: as §1

[41] = target: Neu5Ac(a2-6)Gal(b1-4)GlcNAc(b1-2)Man(a1-3)[Neu5Ac(a2-3)Gal(b1-4)GlcNAc(b1-2)Man(a1-6)]Man(b1-4)GlcNAc(b1-4)GlcNAc
How it was run: as §1

[42] = target: Neu5Ac(a2-6)Gal(b1-4)GlcNAc(b1-2)Man(a1-3)[Neu5Ac(a2-6)Gal(b1-4)GlcNAc(b1-2)Man(a1-6)]Man(b1-4)GlcNAc(b1-4)GlcNAc
How it was run: as §1

B1: BDCA-2 (Homo sapiens), Q8WTT0 (protein)
chain: MVPEEEPQDREKGLWWFQLKVWSMAVVSILLLSVCFTVSSVVPHNFMYSKTVKRLSKLREYQQYHPSLTCVMEGKDIEDWSCCPTPWTSFQSSCYFISTGMQSWTKSQKNCSVMGADLVVINTREEQDFIIQNLKRNSSYFLGLSDPGGRRHWQWVDQTPYNENVTFWHSGEPNNLDERCAIINFRSSEEWGWNDIHCHVPQKSICKMKKIYI
glycan array binding signal (z-score) [1]: -0.192 | glycan array binding signal (z-score) [2]: -0.175 | glycan array binding signal (z-score) [3]: -0.019 | glycan array binding signal (z-score) [4]: -0.162 | glycan array binding signal (z-score) [5]: -0.295 | glycan array binding signal (z-score) [6]: -0.131 | glycan array binding signal (z-score) [7]: -0.175 | glycan array binding signal (z-score) [8]: -0.179 | glycan array binding signal (z-score) [9]: -0.188 | glycan array binding signal (z-score) [10]: -0.186 | glycan array binding signal (z-score) [11]: -0.156 | glycan array binding signal (z-score) [12]: -0.18 | glycan array binding signal (z-score) [13]: -0.184 | glycan array binding signal (z-score) [14]: -0.148 | glycan array binding signal (z-score) [15]: -0.163 | glycan array binding signal (z-score) [16]: -0.021 | glycan array binding signal (z-score) [17]: 0.055 | glycan array binding signal (z-score) [18]: -0.175 | glycan array binding signal (z-score) [19]: -0.161 | glycan array binding signal (z-score) [20]: -0.014 | glycan array binding signal (z-score) [21]: -0.193 | glycan array binding signal (z-score) [22]: -0.174 | glycan array binding signal (z-score) [23]: -0.151 | glycan array binding signal (z-score) [24]: -0.181 | glycan array binding signal (z-score) [25]: 0.015 | glycan array binding signal (z-score) [26]: -0.077 | glycan array binding signal (z-score) [27]: -0.105 | glycan array binding signal (z-score) (Neu5Ac(a2-3)GalNAc): -0.208 | glycan array binding signal (z-score) [28]: -0.249 | glycan array binding signal (z-score) [29]: -0.247 | glycan array binding signal (z-score) [30]: -0.241 | glycan array binding signal (z-score) [31]: -0.141 | glycan array binding signal (z-score) [32]: -0.244 | glycan array binding signal (z-score) (Neu5Ac(a2-6)Gal): -0.173 | glycan array binding signal (z-score) [33]: -0.181 | glycan array binding signal (z-score) (Neu5Ac(a2-6)Gal(b1-4)Glc): -0.252 | glycan array binding signal (z-score) [34]: -0.282 | glycan array binding signal (z-score) [35]: -0.15 | glycan array binding signal (z-score) [36]: -0.162 | glycan array binding signal (z-score) [37]: 1.09 | glycan array binding signal (z-score) [38]: -0.185 | glycan array binding signal (z-score) [39]: -0.177 | glycan array binding signal (z-score) [40]: -0.117 | glycan array binding signal (z-score) [41]: -0.156 | glycan array binding signal (z-score) [42]: -0.099
